According to publication PMC4336329 (PLoS ONE, 2015):
Among all 310,000 compounds or so, about 2,200 (0.71%) showed an effect of 50% or more. The effect is printed as a negative number. The list shows a part of the results.

Each molecule was assayed against human ether-à-go-go-related gene (hERG) potassium channel (human, UniProt Q12809) (assay: primary screen, population patch clamp on CHO cells stably expressing hERG).
human ether-à-go-go-related gene (hERG) potassium channel, sequence (Q12809 whole entry, looked up): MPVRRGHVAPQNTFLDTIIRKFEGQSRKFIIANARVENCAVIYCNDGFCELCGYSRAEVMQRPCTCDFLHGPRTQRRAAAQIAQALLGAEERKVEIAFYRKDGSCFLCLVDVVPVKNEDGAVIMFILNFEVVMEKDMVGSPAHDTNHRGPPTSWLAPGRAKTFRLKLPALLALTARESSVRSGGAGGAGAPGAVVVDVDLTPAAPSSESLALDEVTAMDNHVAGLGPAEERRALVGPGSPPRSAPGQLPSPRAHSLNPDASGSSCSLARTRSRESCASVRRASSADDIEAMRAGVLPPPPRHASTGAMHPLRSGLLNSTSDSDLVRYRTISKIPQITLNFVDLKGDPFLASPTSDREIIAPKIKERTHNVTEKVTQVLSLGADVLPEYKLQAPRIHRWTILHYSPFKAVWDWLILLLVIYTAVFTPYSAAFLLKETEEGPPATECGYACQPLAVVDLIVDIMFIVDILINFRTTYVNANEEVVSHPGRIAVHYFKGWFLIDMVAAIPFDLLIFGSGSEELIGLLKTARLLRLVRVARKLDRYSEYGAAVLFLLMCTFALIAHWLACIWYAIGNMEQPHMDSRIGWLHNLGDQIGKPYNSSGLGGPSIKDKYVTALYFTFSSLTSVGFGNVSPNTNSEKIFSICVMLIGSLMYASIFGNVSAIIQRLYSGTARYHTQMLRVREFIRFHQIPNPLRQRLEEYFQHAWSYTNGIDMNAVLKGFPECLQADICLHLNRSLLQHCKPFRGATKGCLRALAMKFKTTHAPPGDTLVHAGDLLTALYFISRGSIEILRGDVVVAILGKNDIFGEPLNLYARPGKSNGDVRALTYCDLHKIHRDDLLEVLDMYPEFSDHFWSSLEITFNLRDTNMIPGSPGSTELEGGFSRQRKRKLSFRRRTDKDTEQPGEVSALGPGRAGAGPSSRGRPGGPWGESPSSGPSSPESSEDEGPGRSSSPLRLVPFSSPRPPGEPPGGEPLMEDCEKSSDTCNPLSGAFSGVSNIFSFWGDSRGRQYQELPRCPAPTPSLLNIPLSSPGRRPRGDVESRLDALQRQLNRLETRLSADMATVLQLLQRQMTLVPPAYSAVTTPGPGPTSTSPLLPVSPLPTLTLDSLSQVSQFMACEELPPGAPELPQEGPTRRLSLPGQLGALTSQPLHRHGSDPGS

Structure (SMILES)	hERG current change (%, negative = inhibition) at 1uM [%]
CC1(c2nnc(-c3cccc(Cl)c3)o2)CC(c2ccc(Br)cc2)=NO1 (stereo not shown)	11.3
Cc1cc(NC(=O)CSc2cn(CCNC(=O)c3ccc(Cl)cc3)c3ccccc23)no1	-4.13
CCN1CCN(CCCCOc2ccccc2F)CC1.O=C(O)C(=O)O	-4.42
CCOP(=O)(O)c1ccccc1OCCCCCOc1ccccc1P(=O)(O)OCC	16.4
Cc1cn(Cc2ccccc2Cn2cc(C)c(=O)[nH]c2=O)c(=O)[nH]c1=O	16.4
COc1ccc2c(c1OC)C(=O)OC2Nc1nc(-c2ccc(-c3ccccc3)cc2)cs1 (stereo not shown)	14.4
CNS(=O)(=O)c1cccc(C(=O)NCC2(N3CCOCC3)CCCCC2)c1	7.72
CC(NC(=O)c1ccc(Cl)c(Cl)c1)c1ccc(-c2ccccc2)cc1 (stereo not shown)	13
Cn1c2ccccc2c2cnn(CC(=O)O)c(=O)c21	11.8
Cc1ccc(NS(=O)(=O)c2ccc(CCC(=O)NCc3ccccn3)cc2)cc1	10.3
N#Cc1nc(-c2ccco2)oc1NCCCn1ccnc1	-2.93
COc1ccccc1N1CCN(C2CCCN(C(=O)c3csc(C)n3)C2)CC1 (stereo not shown)	2.35
O=C(Oc1ccc2c(c1)O/C(=C\c1ccncc1)C2=O)c1cccs1	6.43
O=C(Nc1ccc(Cl)c(Cl)c1)c1ccccc1NC(=O)C1CC=CCC1C(=O)O (stereo not shown)	9.35
O=C(/C=C/c1ccc(Cl)c(Cl)c1)NCCCn1ccnc1	-3.33
CCN1CCN(S(=O)(=O)c2ccc(Cl)c(C(=O)NCc3ccco3)c2)CC1	4.34
Cc1ccc(C)c(NC(=S)NNc2ccc(F)cc2F)c1	13.4
COc1ccc(C(=O)NCc2nnc(SCC(=O)Nc3nnc(C)s3)o2)cc1OC	3.61
O=C(Nc1ccccc1)Nc1nc(-c2ccc(Cl)cc2)cs1	18
C#CCOCCOCCOCCNc1nc(N2CCOCC2)nc(N2CCN(C(=O)CCCCCCCCCCNC(=O)[C@H](CO)n3cc(CCCSC)nn3)CC2)n1	2.03
Cc1cccc(NC(=O)c2cc(=O)c3ccccc3o2)n1	7.03
CCc1c(C)nc(N2CCN(Cc3ccc4c(c3)OCO4)CC2)[nH]c1=O	10.9
CC(C)NC(=O)c1ccc(CN2CCC(Cc3ccccc3)CC2)cc1	-2.03
CCCCc1nc2cc(C(=O)N3CCCC(OCCC)C3)ccc2o1 (stereo not shown)	9.37
O=C(COc1ccccc1Cc1ccccc1)Nc1cccc(S(=O)(=O)N2CCOCC2)c1	2.76
CN(CC(=O)Nc1ccc(Cl)cc1)C(=O)CCc1ccccc1	13.5
Cc1ccc(N2CN(CCc3ccccc3)CNC2=S)cc1	14.7
Cc1cc2nc(C3CCCN(C(=O)NCc4ccccc4)C3)[nH]c2cc1C (stereo not shown)	-11.1

Structure (SMILES)	hERG current change (%, negative = inhibition) at 1uM [%]
CC(=O)c1ccc([N+](=O)[O-])cc1	13.9
O=C(CSc1nc2ccccc2o1)Nc1cc(C(F)(F)F)ccc1N1CCOCC1	3.84
Cc1ccc(-c2csc(C(C#N)=C3CCCC3)n2)cc1	11.5
Cc1cc(C)nc(SCCS(=O)Cc2ccc(Cl)cc2)n1 (stereo not shown)	8.82
O=C(COC(=O)c1ccccc1Cl)Nc1nccs1	9.76
Cc1cc([N+](=O)[O-])nn1CCCC(=O)Nc1cccnc1Cl	16.7
CC(=O)N(c1cccc(Cl)c1)c1nc(C)cc(C)c1C#N	7.85
COc1cc2[nH]c(=O)n(CCCCCC(=O)N3CC=C(c4ccccc4)CC3)c(=O)c2cc1OC	2.7
Cc1sc(N)nc1-c1ccc(Oc2ccccc2)cc1	9.83
Cc1ccc(S(=O)(=O)Nc2nc3ccc(N)cc3s2)cc1	5.34
O=C(O)CCC1(c2ccccc2)NC(=O)NC1=O (stereo not shown)	9.66
Cn1nnnc1SCC(=O)Nc1ccc(Cl)cn1	15.4
O=C(Nc1ccccc1)c1ccccc1NC(=O)c1ccccc1C(=O)O	11.9
CCOC(=O)c1cnc(-n2cc(C)cn2)nc1Nc1ccccc1OCC	14.3
Cc1cc(C(=O)O[C@H]2[C@H](Cc3ccccc3)NS(=O)(=O)[C@H]3C[C@@H]4C=C[C@]23O4)ccc1[N+](=O)[O-]	-4.36
COc1ccc(C(=O)c2nccc3cc(OC)c(OC)cc23)cc1OC	12.1
C=CCN1C(=O)C2(NNc3ccccc3O2)c2ccccc21 (stereo not shown)	12.3
CCn1c(SCCC(=O)O)nnc1-c1cccnc1	14.1
COCC(C)NC(=O)C1CCN(S(=O)(=O)c2ccc3ccccc3c2)CC1 (stereo not shown)	-0.421
Cc1ccc(S(=O)(=O)N2CC(O)CC2C(=O)Nc2ccc3c(c2)CCC3)cc1 (stereo not shown)	3.79
CCOC(=O)c1cccc(NC(=O)C2CCN(S(=O)(=O)c3cccs3)CC2)c1	-8.58
Cc1ccc(NC(=O)COC(=O)[C@H](C)N2C(=O)C3CC=CCC3C2=O)cc1S(=O)(=O)N(C)C (stereo partly shown)	0.0871
Cc1ccc(-n2cc(CCCCCCCCC(=O)O)nn2)cc1	2.07
COC(=O)/C=C1/N/C(=N\c2nc(C)cc(C)n2)N(c2ccccc2)C1=O	10.4
O=C(COc1ccc([N+](=O)[O-])cc1)NN=C1CCCC1	-3.09
COc1ccccc1NS(=O)(=O)c1ccc(C(=O)NCC(c2ccccc2OC)N(C)C)cc1 (stereo not shown)	8.44
Cc1cc(OC(C)C(=O)NCCc2c[nH]c3ccccc23)c2c(C)cc(=O)oc2c1 (stereo not shown)	-1.63
